Among the data in publication PMC10668032 are binding signal values, retold here.

The list shows a part of the results. At the low end of the ranking the order means little.

The experiment concerns the target SIX1 homeodomain (reference allele) (UniProt Q15475). Description: universal protein binding microarray. Conditions: Universal all-10-mer PBM (8x60K, AMADID 030236), 300 nM GST-tagged protein, Alexa Fluor 488 anti-GST; buffer, salt, pH and temperature not stated; high values mean tight binding; most listed sequences are background and not binding sites; double strand, one strand shown.
Take ACCAGTCT: the binding signal was -0.00903 E-score.
The figure for CCCTAGTC is -0.153 E-score; for CACTCTAG it is 0.0543 E-score.
The figure for ACTTCCCG is 0.0099 E-score.
With CCGATGGC the figure was -0.0673 E-score; with ATTCCGAC, -0.00675 E-score; with AACCCCTT, 0.0305 E-score.
As for ATAGTAAA, the binding signal is -0.033 E-score.
For the sequence GCGGATCA, the binding signal is 0.448 E-score.
As for GGGTAAGA, the binding signal came out at 0.032 E-score.
For the sequence AAAACGGT, the binding signal is -0.109 E-score.
As to TACTGGGA, the binding signal was found to be 0.0604 E-score.
On to ACGGGCGG, for which the binding signal is -0.056 E-score.
AAGCACAG: the binding signal is -0.15 E-score.
The figure for ACCAATTG is -0.0361 E-score; for CAAGAACG it is 0.0292 E-score.
With GGTATCCA, the binding signal turned out to be 0.464 E-score.
In the case of GCTAGTCA, the binding signal was -0.151 E-score.
With ATAAAGGA the figure was 0.0157 E-score.
With AGCCTAAC the figure was -0.149 E-score; with AGATGCCG, 0.0882 E-score; with ATCTAAAG, 0.0517 E-score.
The figure for ATATCTGG is 0.298 E-score.
As to ACGGTTTA, the binding signal came out at 0.146 E-score.
With CTACTTAC the figure was -0.0461 E-score; with CCCACAAG, 0.0193 E-score; with AACCGCAA, -0.082 E-score.
The figure for ACAGGAGT is -0.0647 E-score.
As to GCGGCGCA, the binding signal is -0.111 E-score.
The figure for AAGCAGGT is -0.128 E-score.
Consider ATCCTTGA, for which the binding signal amounted to 0.192 E-score.
Take GAGCAATA: the binding signal is 0.151 E-score.
For the sequence GCTTCACA, the binding signal was -0.149 E-score.
Take GATTAGCC: the binding signal was 0.0282 E-score.
In the case of CGGGCCTC, the binding signal was -0.154 E-score.
For the sequence CTCACCAC, the binding signal was -0.131 E-score.
The figure for AAGCGAAT is -0.0579 E-score; for AGTCTACG it is -0.038 E-score.
As for GCAGGCAA, the binding signal is 0.0408 E-score.
With AGATCTCC the figure was 0.184 E-score; with CTGCAAAA, -0.127 E-score; with GCCGACTA, -0.201 E-score.
On to GGAGACAC, for which the binding signal turned out to be 0.219 E-score.
With AGACCCCA the figure was 0.118 E-score; with ATCTCGCG, 0.257 E-score; with TTAAAGAA, -0.171 E-score.
With ACGGCTGG the figure was -0.0748 E-score.
The figure for ATTCAATC is 0.0984 E-score; for CCTCGTGA it is 0.0568 E-score; for CATAACAC it is 0.161 E-score.
As for TCGAGACA, the binding signal came out at 0.0221 E-score.
The figure for GGGGTCAC is 0.111 E-score.
With ACTAGAGC the figure was -0.101 E-score.
Take ACACCAGC: the binding signal came to 0.211 E-score.
For AAGCCTTA, the binding signal is -0.178 E-score.
Regarding ATCGGTGA, the binding signal was found to be 0.232 E-score.
With CTGCGAGC, the binding signal was -0.0471 E-score.
With TATATCAA the figure was 0.361 E-score; with GAACAGAA, -0.226 E-score; with AATGCCCC, -0.0279 E-score.
For the sequence ACTTTCCG, the binding signal was -0.28 E-score.
CGTATGAC: the binding signal is 0.0448 E-score.
Turning to CGTAGTAA, the binding signal is -0.1 E-score.
As for CACCTACC, the binding signal was -0.14 E-score.
Turning to CACACGGA, the binding signal came to 0.141 E-score.
Regarding CGCCATCC, the binding signal was 0.0833 E-score.
The figure for ACGTCGTA is -0.0201 E-score; for GATTACGC it is 0.225 E-score.
The figure for ATATCGAA is 0.393 E-score; for CCAAGGGC it is -0.287 E-score; for CCAGCACG it is -0.0508 E-score.
With ACCTGGGC the figure was -0.0576 E-score; with ATTGAGCC, 0.114 E-score; with ATTATGTA, 0.122 E-score.
In the case of TGGCAAAA, the binding signal is -0.23 E-score.
For ATCGGCGG, the binding signal is 0.231 E-score.
With CTCTCTTA the figure was -0.155 E-score; with CGGACCAA, -0.151 E-score; with GCCGAGCC, -0.099 E-score.
With GGTCGTAA the figure was -0.0305 E-score.
The figure for ACTCGGCC is -0.27 E-score; for CGAACGGC it is -0.192 E-score; for CCGTGATC it is 0.364 E-score.
Consider CGTCGCGA, for which the binding signal was -0.068 E-score.
Regarding CGCTACTA, the binding signal was -0.0218 E-score.
For the sequence ACTCGCAT, the binding signal was 0.0845 E-score.
With CACGGCGG the figure was -0.0638 E-score.
With GGCCGCAA the figure was -0.151 E-score; with GAGTACAC, 0.107 E-score.
With AGGTAAGC the figure was -0.274 E-score; with ATCTCCAG, 0.194 E-score; with AGAGCGTC, -0.333 E-score.
AACTCTCT: the binding signal was -0.286 E-score.
The figure for AAACCAAT is 0.102 E-score.
On to AGGGCTCC, for which the binding signal was -0.238 E-score.
Consider ACTTTCTA, for which the binding signal was -0.152 E-score.
With ACCAGTAT the figure was 0.24 E-score; with AGTATGTC, -0.119 E-score; with GATGATTA, 0.0465 E-score.
The figure for CGTACCCC is 0.229 E-score; for AAGTCAAC it is -0.218 E-score.
With ACGTGACC the figure was -0.268 E-score.
Turning to GCTAAGTA, the binding signal came out at 0.0679 E-score.
The figure for ACGTTTCC is -0.28 E-score.
The figure for AGAGCAAA is -0.331 E-score.
The figure for GGTACATA is 0.0662 E-score; for CATTGCAG it is 0.00213 E-score.
ACCGCAGA: the binding signal is -0.0163 E-score.
In the case of CGCTCCAG, the binding signal is -0.0141 E-score.
For CGAGAAAC, the binding signal was -0.146 E-score.
In the case of CTCGTGTC, the binding signal turned out to be 0.0485 E-score.
The figure for ATATCGGG is 0.402 E-score; for CGGGACAA it is -0.215 E-score; for ACTGACCA it is -0.209 E-score.
With AGATCGAT the figure was 0.345 E-score; with GCGTTCCA, -0.0423 E-score; with TCCAGTAA, -0.193 E-score.
The figure for AGTTTGGC is -0.259 E-score; for CGGAACTA it is -0.0419 E-score.
Take ATTTTTTA: the binding signal is -0.0919 E-score.
With AATGCTCT the figure was -0.211 E-score; with TGGTTAAA, -0.192 E-score.
The figure for CATAAATC is 0.0731 E-score; for AATGGAGG it is 0.0725 E-score.
For CAAGTACG, the binding signal is -0.315 E-score.
GACTCTCC: the binding signal was -0.214 E-score.
Consider ACTAGTAT, for which the binding signal stood at 0.249 E-score.
The figure for AAAAGCTT is -0.316 E-score.
With CACTTGCA, the binding signal worked out at 0.00783 E-score.
The figure for ACTCAGTA is 0.0393 E-score; for ACATCGTC it is -0.0176 E-score.
With GAGGTGCA the figure was -0.0517 E-score; with AACACTAA, -0.0968 E-score.
With CGAAACTC the figure was -0.195 E-score.
Regarding CGCGAACG, the binding signal was -0.0749 E-score.
As for CACCAGAA, the binding signal was found to be 0.0307 E-score.
As for AGCTGTAG, the binding signal was -0.0569 E-score.
The figure for AGAAAGTG is -0.292 E-score; for CCAACAAA it is -0.106 E-score.
Regarding CGGTATTA, the binding signal turned out to be 0.368 E-score.
With ACATCTCG the figure was 0.0625 E-score; with ATGGCACC, 0.039 E-score; with CATTCGGG, 0.0654 E-score.
With ACCACTAA the figure was -0.112 E-score; with GAAATTGA, -0.0883 E-score.
ACCTTTAC: the binding signal is -0.119 E-score.
Take ATAATTTA: the binding signal is -0.101 E-score.
The figure for ACAGTTTC is -0.101 E-score; for AGCCCGAA it is -0.192 E-score.
On to CTGATAGC, for which the binding signal came to 0.319 E-score.
With AGCTTGTA the figure was -0.106 E-score; with CAGACACG, -0.111 E-score; with CCACTGAC, -0.0811 E-score.
For the sequence AATTCACT, the binding signal was -0.294 E-score.
As for ACGCCCTG, the binding signal was -0.0671 E-score.
With ATGTCAAG, the binding signal is -0.156 E-score.
Consider AATTTAGC, for which the binding signal was -0.139 E-score.
The figure for AAATTCTC is -0.218 E-score; for AAGTCGGG it is -0.0961 E-score; for CGCAAGCC it is -0.138 E-score.
Turning to GAGCGTCC, the binding signal is -0.204 E-score.
In the case of AAAGGCTC, the binding signal is 0.0411 E-score.
As to GAGGAACC, the binding signal was -0.132 E-score.
Take ACTTAAGA: the binding signal was -0.0132 E-score.
The figure for AGGTCCAG is -0.127 E-score.
The figure for AGCCCGAC is -0.226 E-score; for CCTTGATC it is 0.243 E-score.
In the case of GTTGTCTA, the binding signal is -0.122 E-score.
Take AAAAGTAG: the binding signal was -0.0853 E-score.
As for GGGATACA, the binding signal came to 0.383 E-score.
With AAGACCAA the figure was -0.194 E-score; with CTTGTGAA, -0.21 E-score; with AGACATCG, -0.0476 E-score.
The figure for GTCTACCA is 0.0725 E-score.
The figure for AAACTGCT is -0.168 E-score.
For CGTACGAG, the binding signal was -0.244 E-score.
With ATATGCTG the figure was 0.213 E-score; with CGTTGTAC, -0.115 E-score.
With AATATAAT the figure was 0.0774 E-score; with AGAGTAGG, 0.148 E-score.
With GAAAATTC the figure was -0.235 E-score; with CTTTCGAA, -0.252 E-score.
On to AGTAGAGG, for which the binding signal was -0.126 E-score.
Regarding GATGCGAC, the binding signal was 0.139 E-score.
The figure for AGGGAGTC is -0.127 E-score; for CCCTCCTA it is 0.0145 E-score.
The figure for GCTGGGTA is 0.239 E-score; for GCGAGTCC it is -0.21 E-score.
The figure for CAAGTATC is 0.378 E-score; for AGACTGTC it is -0.211 E-score.
As to ATGCTGTC, the binding signal was -0.0494 E-score.
For the sequence CACATAAA, the binding signal was -0.0841 E-score.
The figure for ATCCGTTG is 0.285 E-score; for CTGGCTAA it is -0.101 E-score; for CTTTGATC it is 0.213 E-score.
For the sequence ATACCCAC, the binding signal worked out at 0.392 E-score.
Consider TAAGATCA, for which the binding signal is 0.293 E-score.
With GGTTTCTA the figure was 0.143 E-score.
CATCATTA: the binding signal came to 0.0734 E-score.
With AACCTCGT the figure was 0.0559 E-score; with ATCCACTC, 0.234 E-score.
For the sequence CGGATATA, the binding signal came out at 0.422 E-score.
On to AACCGTTC, for which the binding signal was -0.109 E-score.
With AACGTTAG the figure was -0.243 E-score.
With AGGAATCA the figure was -0.0636 E-score.
With ACAAACCG the figure was 0.0182 E-score; with TACCTGAA, 0.0348 E-score.
GAAGACGC: the binding signal was -0.146 E-score.
The figure for ACACAAGA is -0.114 E-score.
For the sequence CCCCGCCG, the binding signal amounted to 0.257 E-score.
On to CAAATTTA, for which the binding signal was -0.209 E-score.
The figure for CGTGCCTA is -0.28 E-score; for TACGGGGA it is -0.0279 E-score.
As to CCTCTCCA, the binding signal is -0.0391 E-score.
The figure for ATGGGTTG is -0.0621 E-score; for CTGATCCC it is 0.416 E-score; for CTCTTTTA it is -0.189 E-score.
Consider CGTGCTCA, for which the binding signal is 0.0135 E-score.
With AGACCCAA the figure was -0.225 E-score.
